Consider one compound from article PMC6861171 (Science (New York, N.Y.), 2015).

For the experiment, the target named is T1, CYP719A23 (Sinopodophyllum hexandrum, UniProt L7T8H2).
T1 sequence (L7T8H2 1-489): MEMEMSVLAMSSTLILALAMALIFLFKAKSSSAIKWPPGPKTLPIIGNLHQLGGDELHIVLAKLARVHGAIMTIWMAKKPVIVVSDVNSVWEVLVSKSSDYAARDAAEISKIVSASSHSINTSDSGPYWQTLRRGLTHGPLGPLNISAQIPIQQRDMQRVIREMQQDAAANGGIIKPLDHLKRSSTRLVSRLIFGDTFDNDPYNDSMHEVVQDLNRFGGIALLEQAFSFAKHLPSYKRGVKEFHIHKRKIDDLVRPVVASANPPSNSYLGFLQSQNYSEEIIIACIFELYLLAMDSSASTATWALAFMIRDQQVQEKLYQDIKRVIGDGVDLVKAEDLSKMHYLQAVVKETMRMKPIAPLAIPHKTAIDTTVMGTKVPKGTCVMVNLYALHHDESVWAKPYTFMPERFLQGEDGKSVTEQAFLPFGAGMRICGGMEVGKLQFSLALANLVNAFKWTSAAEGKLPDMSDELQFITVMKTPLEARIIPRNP
In words: expression in N. benthamiana leaves, substrate infiltration, LC-MS. In kind it is cell-based. As to conditions: product (−)-pluviatolide.

As for `COc1cc(C[C@H]2COC(=O)[C@@H]2Cc2ccc(O)c(OC)c2)ccc1O` [(−)-matairesinol], the “expression in N. benthamiana leaves, substrate infiltration, LC-MS” value is on record as “we infiltrated leaves expressing CYP719A23 with (−)-matairesinol”.
